# Experimental data from the supplement of paper PMC3334620.
# In all, about 33,000 sequences were measured (“E-score (-0.5 to 0.5)”: median about -0.016, highest 2% from about 0.31 on). The list shows a part of the results.
# Molecular target: Cst6 (UniProt P40535)
# Test: PBM E-score (8-mer binding enrichment) (E-score (-0.5 to 0.5)); higher = stronger / more preferred TF binding; most listed sequences are background and not binding sites
# Conditions: protein concentration: 200 nM; construct: GST-DNA-binding domain
# Method in brief: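 Yeast transcription factors carrying a GST tag, as full-length proteins or DNA-binding domains, were produced by PURExpress in vitro transcription/translation. About 100-200 nM protein was applied to universal all-10-mer Agilent arrays, double-stranded by primer extension on fresh or once-stripped slides. Bound protein was detected with fluorescent anti-GST, and scans were normalised with masliner. The Universal PBM Analysis Suite gave each ungapped eight-base word, pooled with its reverse complement, an E-score, a modified Wilcoxon-Mann-Whitney statistic.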
row,Sequence,PBM E-score
1,CTCAGGGA,-0.36
2,GCAATTTA,0.151
3,AGAGTGCC,-0.178
4,CGGCGGAG,-0.118
5,CTAAGGGC,-0.257
6,TATGATAA,0.251
7,AAACGCAT,-0.13
8,TCGGGAAA,0.00878
9,GTCTAATA,0.122
10,ATAATCAA,0.16
11,ATTTGACA,0.173
12,CCATCCGA,-0.11
13,AATTAAAC,0.205
14,CAAAGTAC,0.0645
15,CACGAATA,0.217
16,AGGCTTAG,-0.144
17,GCAAGGAA,-0.0833
18,ACCCGTAT,-0.0506
19,GCGTCTAC,0.00187
20,AGATTCTA,0.182
21,ATACTACG,0.0975
22,CAGCCATC,0.0162
23,AGCGGGCG,-0.179
24,CAGGTCGG,-0.227
25,ACCACTTA,0.0912

row,Sequence,PBM E-score
1,GCAGGAGA,-0.202
2,CTATCCGC,0.0254
3,GACCCAGC,-0.258
4,CTTATTGA,0.125
5,CGAACCCG,-0.251
6,CAATAGGA,-0.0291
7,ACAAACGC,0.137
8,ACGCCGAA,0.0504
9,CGAAACCA,0.206
10,ACCGATAT,-0.0303
11,CATCAATA,0.244
12,AACATTAC,0.187
13,AACAACAC,0.0919
14,AAGAGACT,-0.192
15,CCATTCGG,-0.0262
16,CTCGGTAA,-0.064
17,AGATATCT,-0.168
18,AGATGGGC,-0.168
19,TAGTAATA,0.236
20,ACTACCAT,0.0297
21,ACTAGGGA,-0.24
22,AAGCTTAT,0.115
23,CTGATGCA,0.0731
24,ATGAATCC,0.00709
25,GCATTCCA,-0.149

row,Sequence,PBM E-score
1,ATGGTGAA,0.142
2,AAAACTAA,0.297
3,CGCGAAAC,0.0509
4,CGTACGTA,0.306
5,AGCGCAGA,-0.176
6,GTTAAGTA,0.178
7,CTCATATA,-0.0189
8,CGCATCCC,-0.216
9,AATATCGA,0.0833
10,CACGGGAG,-0.0594
11,CAGCCGAA,0.0351
12,ACGGGCCT,-0.224
13,CGCCGGTA,-0.145
14,AAACTATT,0.133
15,GATCCGGC,-0.118
16,ATGATAAG,0.171
17,AATAAGGT,0.00713
18,ACAAGCGT,0.0465
19,ATCTAGGA,-0.0727
20,ACCAATTC,-0.0455
21,CGGCTCCA,0.065
22,ATTCCGCC,0.0494
23,CAAACAGA,0.0458
24,CCAGTGCG,-0.281
25,CATGTTGC,0.0284

row,Sequence,PBM E-score
1,ATCTTTAG,0.131
2,CCACTCGG,-0.322
3,TATACGCA,0.177
4,AGTCGCGC,-0.16
5,CCGATGAC,0.336
6,CGTCCTGC,-0.297
7,CGATGACC,0.0541
8,ACAGCGAT,-0.152
9,AGGTCAAT,0.0479
10,GTGCATCA,0.0738
11,AGAGCGTC,-0.0841
12,GGCAGCTA,0.0631
13,AAAGGCGA,0.0536
14,GGCGCTAC,0.0745
15,ACACGGTG,-0.0946
16,CGGATCGA,-0.145
17,CCAACCCA,-0.222
18,ATTCAGGC,-0.0817
19,CCACGGTC,-0.371
20,ACGACCAT,-0.165
21,ATTCCTAG,-0.0362
22,ACGGCTTG,0.108
23,CGGTGTGC,-0.192
24,ACTGTACA,0.0222
25,TAAAAAAA,0.211

row,Sequence,PBM E-score
1,GGTTGAGA,-0.136
2,TATCTGGA,-0.184
3,ACTTCTAC,-0.00244
4,CGCCGACA,-0.0834
5,CACGCCGC,0.0528
6,AGCGTGTC,-0.153
7,AAGGCAGG,-0.132
8,AACGTGAG,-0.145
9,CAGCCAAC,-0.13
10,CTATATAA,0.147
11,AATATTCT,0.156
12,CAGAACTG,0.0427
13,AGCGGTAT,0.0321
14,CGGACCCA,-0.175
15,ATTATAGG,0.0701
16,AAACCAAC,-0.0742
17,CAAGTGCA,-0.189
18,AATTACAC,0.116
19,ATCGTATA,0.104
20,GCAATTAC,0.256
21,TAATCAAA,0.228
22,AAACCTAT,0.109
23,CAATAAGG,-0.0752
24,ACTGACCA,-0.219
25,ATGGCGGC,-0.124

row,Sequence,PBM E-score
1,CCTCTACG,-0.196
2,GCAGATCA,-0.231
3,ACCAGGAT,-0.0743
4,CCTCCGGC,-0.245
5,CTATATGA,0.181
6,TCCTGACA,0.111
7,ACACCAAT,0.0554
8,TCGCTGAA,0.0249
9,ATAAGTGG,0.187
10,AACGTGCG,-0.0179
11,CTACTTCA,-0.103
12,CGCACCAC,-0.0217
13,CGAATTAG,0.0675
14,GCGGACTA,-0.104
15,CACCTTCG,-0.112
16,GGGTATAC,-0.0951
17,ATACATTG,0.153
18,ATGTAGGC,-0.0389
19,AGGCAACA,-0.0635
20,AGGCGGAA,0.045
21,GGGCGGTA,-0.206
22,TCGCACAA,-0.00833
23,ACCCTAGA,-0.134
24,ACTAAAGA,0.105
25,CAGTTTTA,0.00126

row,Sequence,PBM E-score
1,AGTTACCC,-0.103
2,GCCAATGA,-0.0994
3,GACGCTGC,-0.0497
4,ACTCAACA,0.167
5,GGACCGCA,-0.0991
6,CGTGAGGA,-0.0192
7,CTTACCGC,-0.0927
8,AGACGCAG,-0.0866
9,CTACCAAC,0.0112
10,ACCGTACG,-0.133
11,GGATCGAC,-0.193
12,ACAACCCT,-0.202
13,ATTTGAAA,0.222
14,ACATCAAA,0.101
15,CCAAAGGA,-0.159
16,AGAGATGC,-0.0217
17,ATGTCCAG,-0.203
18,ATCCGGAT,-0.104
19,ATCCGGTA,-0.0898
20,AGAATTTC,-0.136
21,ATGTACAG,-0.0888
22,CAATTCGA,0.0475
